Target: T1, Cx43 from rat heart lysate (rat, UniProt P08050 2-382)
T1 construct: Native protein pulled down from a tissue lysate; also called cardiac Cx43
Experiment: GST pulldown from rat heart lysate on glutathione beads, western blot with anti-Cx43 antibody
From the text: FIG. 11 is a western blot for Cx43. Glutathione beads fused to NL.RXPE (“GST-NL.RXPE”) or RXPE (“GST-RXPE”), and glutathione beads alone (“GST”), with (“+”) or without (“−”) exposure to heart lysate, were run on SDS-PAGE, transferred to a nitrocellulose membrane, and probed with an antibody for Cx43. Cx43 was not recovered when GST alone was used as bait.
cDNA coding for […] (SEQ ID NO:11) (“NL.RXPE”) was cloned in-frame with the cDNA for glutathione S-transferase (“GST”). The resulting fusion protein, GST-NL.RXPE was produced in bacteria, and purified by conventional methods. GST-NL.RXPE was bound to glutathione beads and exposed to a rat heart lysate. After washing of the supernatant, the pellets were heated to separate the proteins from the beads. Two additional proteins were produced in parallel, and used as control: GST alone (not fused to any peptide) and GST fused to RXPE. After exposure to heart lysate, the resulting complexes that were “fished out” by the bait proteins were run on SDS-PAGE, transferred to a nitrocellulose membrane, and probed with an antibody for Cx43. […] It is expected that other peptides of formula A-Aₙ interact with Cx43, and may be used in the methods of the present invention.

T1 sequence (P08050 2-382 limits assumed): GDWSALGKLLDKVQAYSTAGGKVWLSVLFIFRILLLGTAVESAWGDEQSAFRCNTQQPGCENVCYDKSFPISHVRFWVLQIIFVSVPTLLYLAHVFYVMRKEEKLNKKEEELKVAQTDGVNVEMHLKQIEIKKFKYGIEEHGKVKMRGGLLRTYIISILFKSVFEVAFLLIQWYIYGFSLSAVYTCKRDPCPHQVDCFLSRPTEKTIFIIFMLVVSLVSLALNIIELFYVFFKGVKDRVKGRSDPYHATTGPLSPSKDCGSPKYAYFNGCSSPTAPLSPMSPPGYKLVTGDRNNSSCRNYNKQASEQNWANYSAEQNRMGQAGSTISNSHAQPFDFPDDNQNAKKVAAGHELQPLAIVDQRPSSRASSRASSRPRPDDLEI

binding result: no binding
B1: GST alone (not fused to any peptide) (other)
chain: not shown
notes: Control bait on glutathione beads

From US20090075291A1 (RESEARCH FOUNDATION OF STATE UNIVERSITY OF NEW YORK, published 2009)
